From publication PMC6212790
This is one part of the list. At the low end of the ranking the order means little.

What follows are sequences tested against T1, GST-Rok-C97-191 (UniProt O34857) (assay: protein binding microarray). Conditions: Rok is a gene silencer of Bacillus subtilis; high values mean tight binding; most listed sequences are background and not binding sites; double strand, one strand shown.
T1 sequence: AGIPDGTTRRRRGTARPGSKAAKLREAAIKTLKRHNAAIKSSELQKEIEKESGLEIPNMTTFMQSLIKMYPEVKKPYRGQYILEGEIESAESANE
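Note: rank score from −0.5 (least bound) to 0.5 (best bound).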

Sequence | binding signal [E-score]
GACTCACC | -0.147
AGAAAGGA | -0.254
AATACGTC | 0.221
CCATAGCA | -0.0019
TATTCCGA | 0.165
GACAAGGA | 0.0348
GCATTGGC | -0.313
CGCTTTCC | -0.13
AATGACCC | -0.248
AGAAGGAC | -0.226
CCTTTTGC | 0.0933
ACCAATCC | 0.0228
ACGCTGGG | -0.202
CGATGCGA | -0.112
ACCAGAGT | 0.00189
AGTCCTAA | 0.00524
GTCACTTA | -0.0524
CTCAGCTA | 0.161
CTGTGAGC | -0.199
AGACCGTC | -0.26
CAAAATAC | 0.287
ACTGATAT | 0.262
CGCAACAA | 0.0834
ACTATCGC | 0.258
AGCATTGC | 0.149

Sequence | binding signal [E-score]
GCTTTCCA | -0.2
ACGATTCA | -0.0922
CACAGTCA | -0.104
GGTGTGCA | -0.136
CCTCGAAG | -0.146
GAATAACC | 0.0907
CATGCAAA | -0.0437
CTGGGTGC | -0.18
AGGATAGC | 0.0389
AGGGGTGA | -0.214
AACGATCT | -0.0805
GCTTGTAA | 0.0611
AATCAGCC | -0.047
ATATAAGA | 0.178
ACACCGAA | -0.109
CACTAGCC | -0.194
TACCTTGA | -0.0852
AGGGCCCT | -0.299
ATTAAAAG | 0.221
ACTGTGCT | -0.154
CTCAGGCA | -0.0605
TAACCGGA | 0.000222
CTTAGGTC | -0.15
AGAGTAAC | -0.17
CAATTCTC | 0.136

Sequence | binding signal [E-score]
AACCTTAG | -0.0495
CACTCTCA | -0.116
ATGGCAGC | -0.095
TCTAAAGA | -0.19
ACTAGTAC | 0.393
AAACTATT | 0.448
GAGGTGCC | -0.197
CATGCATG | -0.157
GACTACCC | 0.0938
CCCATGCG | -0.23
CGGGGGGC | -0.403
CTTCAAGA | -0.229
AATATCGT | 0.204
AGAATTCA | 0.00405
CTCGCCAA | -0.244
ACACTTTA | 0.177
CGAATAAA | 0.0212
GGACCCAC | -0.209
CGAGATGC | -0.108
ATGGTGCC | -0.109
TATCCAGA | -0.0641
CATGTCGG | -0.0338
ATCTAAGA | 0.072
GGAGATTA | 0.023
CGGGTTCC | -0.159

Sequence | binding signal [E-score]
ATACCGCA | 0.0733
GCCTCTCA | -0.126
ATTCAGGA | -0.0178
CTTGCGGC | -0.167
AGTGCCTG | -0.165
CGGTCATC | -0.167
GGTGTGGA | -0.195
AGATTTCG | 0.0883
CGTAGCAG | -0.02
CCTACCAA | 0.0829
CCCCCGGG | -0.191
AATAGAAG | 0.071
ATACAGGG | -0.0942
ACGAAGAT | 0.106
CGCGACGC | -0.136
GCGGGATA | -0.0682
AGCCTTAG | -0.12
CTGACGAC | -0.0534
AGTGCCCG | 0.0213
AGATGTCA | -0.00931
CATCGGAA | -0.148
CGGTACCA | 0.154
CAAGGATC | 0.0369
CTATCTGA | 0.162
GCATTAAA | -0.0275

Sequence | binding signal [E-score]
CATGGCAC | 0.0751
ACCGATAA | 0.152
CTGACGGC | -0.325
ACCGGACG | -0.107
AACCTGTC | -0.137
ACAGCGGA | 0.142
CGAAAGCC | -0.216
ACAGCCCG | -0.173
CGGGGTGC | -0.247
CATTGCCA | -0.117
CTGGGTCA | -0.0899
CCACAGTA | -0.122
CCACTCTA | -0.0417
TAACCAAA | 0.123
GAAAATAC | 0.279
CACGTGGG | -0.186
GTAGTCCA | 0.0264
TATACTAA | 0.382
ATAAATGA | 0.187
ATTCCCGG | -0.0582
CACATTAA | 0.186
CCTTTTTA | 0.169
CTGCCTAA | 0.106
ACCAGACC | -0.00378
CTTTATAC | 0.227

Sequence | binding signal [E-score]
ACGTTACC | 0.0717
CTGTACGC | -0.19
ATGCTCTG | -0.2
AATTGGGG | 0.0274
ATACCTTG | 0.0513
CAGCGATC | -0.0229
CCTTCAAA | -0.148
ACCTCGAC | -0.135
CGCACAAA | -0.112
CAAACGTG | -0.085
CTACGCAC | -0.0856
AGTCGGGC | -0.2
ACGTCAAT | 0.169
ACTCCGAT | 0.156
CAAGAGAA | 0.0949
AAAATGGT | 0.0133
AAGCCACT | -0.139
GCCACAGC | -0.362
CGATCGAG | -0.107
ATGTCGCA | -0.131
CCCCCCTC | -0.365
GAGGCCGC | -0.233
AATTGTTG | 0.151
CCATAGGA | 0.0814
ACATAGGC | -0.0798

Sequence | binding signal [E-score]
GCAGCCGA | -0.362
GTACTCGA | -0.0223
ATTTCGGC | 0.147
GGGAGCAC | -0.183
GTGTTCCA | -0.345
AGCCTGTG | -0.0607
TCGGGAGA | -0.0327
TAGAATAA | 0.243
CCCAGAAC | -0.105
AGCCATAG | -0.106
GTTGACAA | -0.0946
CAGAGCAA | -0.119
ATGAGCGC | -0.0901
CCCCGTCA | -0.184
GCACGTGA | 0.04
ACATGGTC | -0.0861
CCTGGGGC | -0.273
CTGATAAG | 0.0786
ACCATGAC | -0.0314
CGTTGTCA | 0.0104
AACTGTGC | -0.0207
CTCGTAAA | 0.123
CTTATTCA | 0.048
CTTGGGGA | -0.0504
CAGCCCGG | -0.138

Sequence | binding signal [E-score]
CACAGACC | -0.0415
CGATATTA | 0.286
AGCCTCCA | -0.243
ATCACCAT | 0.0924
AATTGTCG | 0.0528
CCAAAGAG | -0.23
GGTCACAA | -0.128
AATACCCT | -0.00373
GATTGCAC | 0.024
ACGACTCC | -0.173
AACGAAGC | -0.117
GTAACGAA | 0.154
CGAATCTC | -0.139
GTCACGAC | -0.118
CGAAGAAC | -0.099
AGATGTTG | -0.0437
AGCCGGGA | -0.162
CTCGGTGC | -0.0579
CCCAGTTC | -0.205
CAAACACG | 0.0112
ACCATGGC | -0.0256
AAGATGTC | -0.253
CTGGTTGA | -0.0916
ACGTATCT | 0.238
ATGCTGAC | -0.0948

Sequence | binding signal [E-score]
ATGTCGCG | -0.0211
CGGGAATA | 0.0987
GGTGTTTA | 0.101
AAATAAGT | 0.215
ACAAATCG | 0.0972
TAGTCGGA | 0.133
AGGTAAAG | 0.00717
TATCTCAA | 0.205
ATCCAAGC | -0.0917
AATAATAC | 0.335
ACCCTGCC | -0.226
AAAAATTT | 0.128
TGCATTAA | 0.0933
CAACAAGG | -0.111
AACTCGAT | -0.157
CGGGACCG | -0.162
AGCCGTGC | -0.0569
AACCTTTA | 0.147
TAGAGCTA | 0.0867
